Data from article PMC9911399, “Two distinct binding modes provide the RNA-binding protein RbFox with extraordinary sequence specificity”.
Positions count from the first letter of the chain named. Some of the results follow.

T1: RBFOX1 RRM (Homo sapiens, UniProt Q9NWB1 109-208)
T1 sequence: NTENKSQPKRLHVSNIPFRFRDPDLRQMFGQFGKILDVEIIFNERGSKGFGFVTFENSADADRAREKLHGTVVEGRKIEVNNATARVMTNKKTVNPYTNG

B1: GUGCCCA (DNA:RNA)
RNA: GGGAGACCGGAAUUCAGAUUGUCCGUGCCCAUUAAAUCCCGUCGUAGCCACCA
DNA 1: CAATCTGAATTCCGGTCTCCC
DNA 2: TGGTGGCTACGACGGGATT
B2: CGGAGAU (DNA:RNA)
RNA: B1 RNA with G25C, U26G, C28A, C29G, C30A, A31U
DNA 1: CAATCTGAATTCCGGTCTCCC
DNA 2: TGGTGGCTACGACGGGATT
B3: GUCUGAA (DNA:RNA)
RNA: B1 RNA with G27C, C28U, C29G, C30A
DNA 1: CAATCTGAATTCCGGTCTCCC
DNA 2: TGGTGGCTACGACGGGATT
B4: UCUCAAA (DNA:RNA)
RNA: B1 RNA with G25U, U26C, G27U, C29A, C30A
DNA 1: CAATCTGAATTCCGGTCTCCC
DNA 2: TGGTGGCTACGACGGGATT
B5: GACAUGC (DNA:RNA)
RNA: B1 RNA with U26A, G27C, C28A, C29U, C30G, A31C
DNA 1: CAATCTGAATTCCGGTCTCCC
DNA 2: TGGTGGCTACGACGGGATT
B6: AUCCAUG (DNA:RNA)
RNA: B1 RNA with G25A, G27C, C29A, C30U, A31G
DNA 1: CAATCTGAATTCCGGTCTCCC
DNA 2: TGGTGGCTACGACGGGATT
B7: UUAAUUC (DNA:RNA)
RNA: B1 RNA with G25U, G27A, C28A, C29U, C30U, A31C
DNA 1: CAATCTGAATTCCGGTCTCCC
DNA 2: TGGTGGCTACGACGGGATT
B8: AAGUUGG (DNA:RNA)
RNA: B1 RNA with G25A, U26A, C28U, C29U, C30G, A31G
DNA 1: CAATCTGAATTCCGGTCTCCC
DNA 2: TGGTGGCTACGACGGGATT
B9: AUACGAG (DNA:RNA)
RNA: B1 RNA with G25A, G27A, C29G, C30A, A31G
DNA 1: CAATCTGAATTCCGGTCTCCC
DNA 2: TGGTGGCTACGACGGGATT

Target: T1, RBFOX1 RRM
Assay: EMSA; HiTS-Eq, 1 nM pool, 10 min; buffer printed only for the single-RNA assays: 10 mM Tris pH 7.5, 150 mM NaCl, 3.4 mM EDTA, 0.001% NP-40, 30 C
Settings: tags: His6 N-terminal (pET28a); label: 5' 32P
How it was run: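 A pool of RNA with 7 randomized nucleotides, 5′-radiolabelled and with DNA-annealed flanks, was equilibrated at 1 nM for 10 min in 50 µL with purified RbFox RRM, wild type or mutant, across increasing protein concentrations. Free RNA was separated by 8% native PAGE, excised, reverse-transcribed, barcoded by PCR and sequenced. Relative association constants were obtained from read-count changes of each RNA species versus the control reaction and normalised to the cognate motif.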

Point of comparison: B2, binding signal 0.0246 KA relative to UGCAUGU. Against it:
- B1 — lower, 0.00836 KA relative to UGCAUGU
- B3 — lower, 0.0226 KA relative to UGCAUGU
- B4 — lower, 0.00348 KA relative to UGCAUGU
- B5 — lower, 0.0109 KA relative to UGCAUGU
- B6 — lower, 0.00199 KA relative to UGCAUGU
- B7 — lower, 0.00411 KA relative to UGCAUGU
- B8 — lower, 0.0125 KA relative to UGCAUGU
- B9 — lower, 0.00433 KA relative to UGCAUGU
